Measurements published in paper PMC4336329 (PLoS ONE, 2015).
Screen size: about 310,000 compounds; about 14,000 (4.5%) showed an effect of 50% or more. Effects have a minus sign here. Some of the results follow.

What follows are molecules tested against human ether-à-go-go-related gene (hERG) potassium channel (human, UniProt Q12809) (assay: primary screen, population patch clamp on CHO cells stably expressing hERG).
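Also: peak tail current of the secondary pulse compared with the same well before compound.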

Chain of human ether-à-go-go-related gene (hERG) potassium channel (Q12809 whole entry, looked up): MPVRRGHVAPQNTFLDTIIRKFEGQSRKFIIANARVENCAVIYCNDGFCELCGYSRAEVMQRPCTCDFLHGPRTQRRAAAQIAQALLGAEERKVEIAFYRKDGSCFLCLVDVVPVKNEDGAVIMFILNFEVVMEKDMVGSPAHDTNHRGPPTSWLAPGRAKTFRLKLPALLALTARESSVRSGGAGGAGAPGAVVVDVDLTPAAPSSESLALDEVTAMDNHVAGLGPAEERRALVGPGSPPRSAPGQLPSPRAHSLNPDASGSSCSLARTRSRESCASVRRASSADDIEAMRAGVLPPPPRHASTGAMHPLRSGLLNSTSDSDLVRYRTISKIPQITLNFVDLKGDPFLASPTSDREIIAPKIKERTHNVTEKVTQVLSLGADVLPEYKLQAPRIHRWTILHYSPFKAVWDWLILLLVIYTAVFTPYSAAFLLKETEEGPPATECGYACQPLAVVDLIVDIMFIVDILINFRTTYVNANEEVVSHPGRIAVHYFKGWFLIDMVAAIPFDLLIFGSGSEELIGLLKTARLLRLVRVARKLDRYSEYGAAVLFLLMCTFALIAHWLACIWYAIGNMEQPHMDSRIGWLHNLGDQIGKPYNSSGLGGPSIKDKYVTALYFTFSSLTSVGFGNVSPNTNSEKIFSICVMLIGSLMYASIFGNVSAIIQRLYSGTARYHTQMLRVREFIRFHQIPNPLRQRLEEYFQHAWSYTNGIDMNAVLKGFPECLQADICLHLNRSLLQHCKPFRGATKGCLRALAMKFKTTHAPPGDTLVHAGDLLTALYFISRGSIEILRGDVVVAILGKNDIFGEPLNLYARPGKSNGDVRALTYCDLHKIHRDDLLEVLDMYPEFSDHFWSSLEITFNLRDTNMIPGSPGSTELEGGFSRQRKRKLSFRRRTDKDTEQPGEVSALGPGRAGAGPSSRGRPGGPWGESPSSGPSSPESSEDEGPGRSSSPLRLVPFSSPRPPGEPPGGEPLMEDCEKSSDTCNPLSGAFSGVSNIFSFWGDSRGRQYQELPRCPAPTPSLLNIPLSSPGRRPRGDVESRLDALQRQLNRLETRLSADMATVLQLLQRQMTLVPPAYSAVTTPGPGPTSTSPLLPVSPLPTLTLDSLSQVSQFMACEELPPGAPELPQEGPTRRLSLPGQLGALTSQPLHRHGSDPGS

Row | SMILES | hERG current change (%, negative = inhibition) at 10uM [%]
1 | c1ccc(-c2nc(NCCCN3CCOCC3)c3ccccc3n2)cc1 | -34.6
2 | COc1ccc(/C(=C/Nc2cccc(Br)c2)C(C)=O)cc1OC | -12.9
3 | Cc1noc(N)c1C(=O)Nc1ccc(F)cc1 | 5.37
4 | O=C(Nc1cccc2ncccc12)c1ccc(Br)c([N+](=O)[O-])c1 | 8.69
5 | COc1cccc(C(=O)Nc2ncc3c(n2)CC(c2ccc(OC)cc2OC)CC3=O)c1 (centres unmarked) | -17.3
6 | Nc1cc(=O)[nH]c(SCC(=O)Nc2ccccc2Sc2ccccc2)n1 | 6.15
7 | CC(Sc1ccccc1)C(=O)N1CCN(S(=O)(=O)c2ccccc2)CC1 (centres unmarked) | -8.83
8 | O=C(Nc1cnc2ccccc2c1)c1ccncc1 | 2.45
9 | Cc1sc(NC(=O)C2CCCCC2)c(C#N)c1-c1ccccc1 | 8.24
10 | COc1cc(C)c(Br)cc1S(=O)(=O)NCCCN1CCOCC1 | 9.66
11 | COc1ccc(N2C(=O)C(Cl)=C(NCc3ccccc3)C2=O)cc1 | -5.74
12 | COc1ccc(C(=O)c2c(C)c3cc(C)ccc3n2CC(O)CN2CCOCC2)cc1.Cl (centres unmarked) | -32.4
13 | O=C(Nc1cccc(Cl)c1)Nc1cnccn1 | 29.1
14 | COc1ccc(CN(C)S(=O)(=O)c2nnc(NC(=O)c3ccccc3OC)s2)cc1OC | 22
15 | CC(C)(C)NC(=O)CSc1nnc(Cc2ccccc2)n1CC1CCCO1 (centres unmarked) | -2.95
16 | O=C(CN1C(=O)NC2(CCCCCC2)C1=O)c1ccc(Cl)s1 | 6.1
17 | CSc1nc(Sc2ccccc2)c2ccccc2n1 | 7.04
18 | CCCNC(=O)Nc1cc(OCC)c(N2CCOCC2)cc1OCC | -9.65
19 | COc1cc(CN2CCCC(CCC(=O)NCc3ccc(C)o3)C2)cc2c1OCO2 (centres unmarked) | -59.9

Row | SMILES | hERG current change (%, negative = inhibition) at 10uM [%]
20 | Cc1oc(-c2ccc(F)cc2)cc1-c1nn2c(-c3ccoc3C)nnc2s1 | 17
21 | Cc1ccc(NS(=O)(=O)c2cc(C(=O)N3CCOCC3)ccc2C)cc1 | -3.78
22 | Cc1ccc(SCC(=O)Nc2cccc(-c3nnc(-c4ccco4)o3)c2)cc1 | -2.67
23 | Cc1ccc(NC(=S)NCc2cccs2)c(C)c1 | 9.56
24 | N#CCC(=N)N1CCN(c2ccc(Cl)cc2)CC1 | -29
25 | O=C(c1cccc(F)c1F)N1CCCc2ccccc21 | 8.46
26 | O=C(Oc1cccc2cccnc12)c1ccco1 | -10.2
27 | CC1=C(C(=O)N2CCN(C(=O)c3ccco3)CC2)C2(CCC(C)CC2)OC1=O (centres unmarked) | -63.8
28 | CCCN(CCC)c1ccc(C(O)c2nnc(-c3ccccc3)o2)cc1 (centres unmarked) | -8.96
29 | CCCCn1c(SCC(=O)N(C)C)nnc1-c1ccncc1 | -2.16
30 | COc1ccc(Nc2cc3n(c(=O)n2)CCc2cc(OC)c(OC)cc2-3)c(C)c1 | 9.98
31 | Cn1c(C(=O)NCCN2CCCCCC2)cc2c(=O)n(C)c3ccccc3c21 | -13.4
32 | COC(=O)c1c(NC(=O)Cn2nc(C(F)F)cc2C(F)F)sc(C)c1C | 14.5
33 | CC(C)N(Cc1nc(-c2ccccc2)no1)C(=O)CSc1ccccc1 | -1.38
34 | CC(C)CN(C(=O)c1cccc(Cl)c1)c1c(N)n(CC(C)C)c(=O)[nH]c1=O | 11.6
35 | Cc1cc2c(cc1C)NC(c1cccnc1)C1=C(CC(C)(C)CC1=O)N2 (centres unmarked) | 14.4
36 | CCOc1ccc(/C=N/NC(=O)c2ccc(F)cc2)cc1CN1CC2CC(C1)c1cccc(=O)n1C2 (centres unmarked) | -53.3
37 | COc1cc(CNCCO)cc(Br)c1OCc1ccccc1.Cl | -25.4
38 | CCCCC12CN3CCN(CC(C3)/C1=N\NC(=O)c1ccccc1N)C2 | -70.8

Row | SMILES | hERG current change (%, negative = inhibition) at 10uM [%]
39 | CCOC(=O)c1cc2c(=O)[nH]ccc2nc1C(F)(F)F | 6.85
40 | COc1ccc(CCN2C(=NC(=O)C(C)C)SC3CS(=O)(=O)CC32)cc1 (centres unmarked) | -12.4
41 | O=C(CCc1ccccc1)NNC(=S)NCCc1ccccc1 | 6.95
42 | COc1ccccc1NC(=O)/C=C/c1ccc(OC)c(S(=O)(=O)N2CCOCC2)c1 | -17.2
43 | O=C(CC1C(=O)NCCN1Cc1ccc(-c2ccccc2)cc1)NCc1ccccc1 (centres unmarked) | 0.0315
44 | Cc1nc2scc(C)n2c(=O)c1S(=O)(=O)N1CCN(c2ccc(F)cc2)CC1 | -6.66
45 | Cc1ccc(S(=O)(=O)N2CCC(C(=O)Nc3ccc4c(c3)COC4=O)CC2)cc1 | 3.99
46 | CCOC(=O)NC(=O)/C(C=Nc1ccc(Cl)cc1)=C(\C)O | 14.4
47 | Cc1nc(NCc2cccnc2)c2c3c(sc2n1)CCCC3 | -70.2
48 | Cc1ccc(C(=O)Nc2ccc(Br)cc2)cc1S(=O)(=O)Nc1ccccn1 | -4.95
49 | COc1cccc(-c2cc(C(=O)N3CCN(c4ccc(F)cc4)CC3)no2)c1 | 10.9
50 | O=C(O)c1ccc2c(=O)n3c(nc2c1)/C(=C/c1ccc(Cl)c(Cl)c1)CC3 | 12.1
51 | COc1ccccc1NC(=O)c1ccc(Br)c(S(=O)(=O)N2CCCC2)c1 | -2.36
52 | COC1(C)CC2C(CC1OC(=O)c1cc([N+](=O)[O-])cc([N+](=O)[O-])c1)C2(C)C (centres unmarked) | -11.6
53 | CCOc1ccc(C2C(C(=O)NC)=C(C)Nc3nc4ccccc4n32)cc1OC (centres unmarked) | 11.9
54 | Cc1cccc(-n2cc(CN3CCN(c4ccccn4)CC3)c(-c3cccc(F)c3)n2)c1 | 14.6
55 | CC(=O)c1cc2c(=O)c3cc(C)ccc3oc2nc1C | -7.48
56 | COCCNC(=S)N(CCc1c(C)[nH]c2ccccc12)Cc1cccnc1 | -8.41
